About 14,000 (4.5%) of roughly 310,000 compounds showed an effect of 50% or more. The effect is printed as a negative number. The list shows a part of the results.
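Also: peak tail current of the secondary pulse compared with the same well before compound.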

In the test the target is human ether-à-go-go-related gene (hERG) potassium channel (human, UniProt Q12809). Kind of test: primary screen, population patch clamp on CHO cells stably expressing hERG.
human ether-à-go-go-related gene (hERG) potassium channel, sequence (Q12809 whole entry, looked up): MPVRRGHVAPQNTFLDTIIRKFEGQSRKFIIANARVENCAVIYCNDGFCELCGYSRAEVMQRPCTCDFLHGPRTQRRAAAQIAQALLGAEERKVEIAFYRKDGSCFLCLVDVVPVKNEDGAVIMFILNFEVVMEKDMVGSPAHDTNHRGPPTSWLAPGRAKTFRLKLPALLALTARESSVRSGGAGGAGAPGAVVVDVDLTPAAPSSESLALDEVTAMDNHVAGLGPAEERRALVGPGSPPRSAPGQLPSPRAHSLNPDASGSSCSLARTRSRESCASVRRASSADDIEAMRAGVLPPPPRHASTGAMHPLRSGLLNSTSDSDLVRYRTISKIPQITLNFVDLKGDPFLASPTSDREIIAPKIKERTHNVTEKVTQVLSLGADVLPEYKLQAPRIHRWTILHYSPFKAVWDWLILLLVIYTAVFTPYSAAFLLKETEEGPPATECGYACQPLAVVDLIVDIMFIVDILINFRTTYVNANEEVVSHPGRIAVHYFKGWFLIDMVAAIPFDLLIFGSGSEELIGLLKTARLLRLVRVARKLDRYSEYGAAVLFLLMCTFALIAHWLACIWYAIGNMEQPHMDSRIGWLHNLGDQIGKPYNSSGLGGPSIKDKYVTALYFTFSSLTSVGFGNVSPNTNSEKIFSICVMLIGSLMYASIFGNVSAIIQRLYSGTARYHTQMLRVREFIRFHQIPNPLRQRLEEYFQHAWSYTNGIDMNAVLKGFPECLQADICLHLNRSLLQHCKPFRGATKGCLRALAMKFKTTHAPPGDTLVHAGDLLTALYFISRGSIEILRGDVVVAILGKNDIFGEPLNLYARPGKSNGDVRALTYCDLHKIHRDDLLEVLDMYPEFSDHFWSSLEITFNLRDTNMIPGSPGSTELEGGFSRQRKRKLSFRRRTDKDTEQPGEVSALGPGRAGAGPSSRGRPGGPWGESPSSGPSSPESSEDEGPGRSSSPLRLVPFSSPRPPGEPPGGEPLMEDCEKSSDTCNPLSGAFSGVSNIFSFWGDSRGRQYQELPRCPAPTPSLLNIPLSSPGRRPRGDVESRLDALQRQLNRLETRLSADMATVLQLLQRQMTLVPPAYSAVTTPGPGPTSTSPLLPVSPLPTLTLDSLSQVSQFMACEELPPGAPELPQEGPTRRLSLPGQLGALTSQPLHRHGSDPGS
Consider `COc1ccc(/C=C2\SC(=S)N(CCC(=O)N3CCCCC3)C2=O)cc1`, for which the “hERG current change (%, negative = inhibition) at 10uM” value was -13.4%.
With `O=C(NCc1ccco1)c1cccs1` the figure was -4.32%; with `Cc1nn(-c2ccccc2)c(C)c1NC(=O)COC(=O)Cc1ccccc1F`, -2.56%; with `C=CCn1cc(C(=O)NCCCN(CC)CC)c(=O)c2cc(S(=O)(=O)N3CCC(C)CC3)ccc21`, -53.7%.
Next, `CCOC(=O)CNC(=O)c1cnn2cccnc12`: 2.78%; `COc1ccc(OC(C)C(=O)Nc2cccc([N+](=O)[O-])c2)cc1` (centres unmarked): -58.8%; `C=C(C)COc1ccc2c(C)c(CC(=O)N3C[C@H]4C[C@@H](C3)c3cccc(=O)n3C4)c(=O)oc2c1C`: -49.2%.
As to `CC(C)C(NC(=O)C12CC3CC(CC(C3)C1)C2)C(=O)O` (centres unmarked), the “hERG current change (%, negative = inhibition) at 10uM” value was -9.65%.
Next, `O=S(=O)(Nc1ccc(Nc2ccccc2)cc1)c1ccc(F)cc1`: 6.46%; `O=C(NCc1ccccc1Cl)c1ccc2c(c1)SC1=NS(=O)(=O)CCN12`: -7.44%; `CC1(C)Cc2ccccc2-c2c1c(=O)n(Cc1ccccc1)c1nnnn21`: -3.67%.
Next, `CNC(=O)C(NC(=O)CNC(=O)c1ccc(Cl)cc1)C(C)(C)C` (centres unmarked): 21.6%; `COC(=O)CCN1CCC(c2cc(-c3cccc(C(F)(F)F)c3)n[nH]2)CC1`: -72.2%; `OC1(c2cccc(C(F)(F)F)c2)CCN(c2ncnc3c2[nH]c2ccccc23)CC1`: -22.6%.
With `Cc1cc(OC(=O)Cc2cccc3ccccc23)c([N+](=O)[O-])c(=O)[nH]1` the figure was 16.1%.
Consider `Cc1ccc(-c2noc(CCC(=O)NC3CCCC3)n2)cc1`, for which the “hERG current change (%, negative = inhibition) at 10uM” value was found to be 2.17%.
With `Cc1ccc(S(=O)(=O)N2CCC(C(=O)OCC(=O)N(C)c3ccccc3)CC2)cc1C` the figure was 3.15%.
`Cc1ccc2nc(NCc3ccco3)c(C=NCc3ccco3)c(=O)n2c1`: the “hERG current change (%, negative = inhibition) at 10uM” value is listed as -5.94%.
Next, `CC(=O)OC1CCC2(C)C(CCC3C2CC(OC(C)=O)C2(C)C3C[C@@H]3O[C@]4(CC[C@@H](C)CO4)[C@@H](C)C32)C1` (some centres unmarked): 7.43%; `Cc1cc(C)c2c(CN3CCN(C)CC3)cc(=O)oc2c1`: -73.3%.
With `CC1C(=O)C(C)C(c2ccc(O)cc2)NC1c1ccc(O)cc1` (centres unmarked) the figure was 23%.
Turning to `COc1cc(C(=O)N2CCN(S(=O)(=O)c3cccc(F)c3)CC2)ccc1OCC(=O)N1CCOCC1`, the “hERG current change (%, negative = inhibition) at 10uM” value was -0.874%.
On to `COc1ccc(S(=O)(=O)N(C)c2ccc(C(=O)N3CCOCC3)cc2)cc1`, for which the “hERG current change (%, negative = inhibition) at 10uM” value is reported as -6.62%.
`O=C(c1ccc2c(c1)OCO2)N1CCOCC1`: the “hERG current change (%, negative = inhibition) at 10uM” value is reported as 17.5%.
With `CSc1ccccc1C(=O)N1CCC(n2nccc2NC(=O)C(C)(C)C)CC1` the figure was 33.5%; with `NC(=O)c1ccc(NC(=O)CCNC(=O)c2ccco2)cc1`, 10.1%; with `Cc1cc2c(cc1S(=O)(=O)N1CC(C)CC(C)C1)OCC(=O)N2` (centres unmarked), 1.32%.
With `COC(=O)c1cc(NC(=O)c2cc(-c3ccc(Cl)cc3)oc2C(F)(F)F)ccc1N1CCOCC1` the figure was 14.7%; with `O=C1CC(N2CCN(c3ccccc3)CC2)C(=O)N1Cc1ccc(Cl)cc1` (centres unmarked), -35.1%; with `COc1cc(C)c(-c2nc(CN3C[C@@H]4C[C@@H](C3)c3cccc(=O)n3C4)c(C)o2)cc1C`, -57.6%.
As for `COc1ccc(Cc2nnc(SCC(=O)Nc3ccc(N4CCOCC4)cc3)n2C)cc1`, the “hERG current change (%, negative = inhibition) at 10uM” value was determined as 8.93%.
With `CCOc1cc(-c2nc3ccccc3s2)ccc1O` the figure was 4.57%.
Regarding `CC(=O)NCCSCCNC(C)=O`, the “hERG current change (%, negative = inhibition) at 10uM” value amounted to 9.63%.
With `COc1ccccc1NC(=O)CNC(=O)c1ccc(F)cc1` the figure was 1.55%.
Next, `NC(=O)CSc1nc2ccccc2c(=O)n1Cc1ccco1`: -36%.
With `CC(=O)NCCNc1nc2c(-c3cccc(C)c3)nnn2c2ccccc12` the figure was 12.8%; with `Cc1ccsc1C(=O)N1CCCC(N2CCN(c3cccc(Cl)c3)CC2)C1` (centres unmarked), -22.2%.
With `CC1=CC(=Nc2c(C)n(C)n(-c3ccccc3)c2=O)C=C(C)C1=O`, the “hERG current change (%, negative = inhibition) at 10uM” value is given as 13.4%.
`CC(=O)Nc1ccc(C2=NNC(=Nc3ccc(S(=O)(=O)N4CCOCC4)cc3)SC2)cc1`: the “hERG current change (%, negative = inhibition) at 10uM” value stood at 1.14%.
Take `CCc1ccc(NC(=O)c2nc(S(=O)(=O)Cc3ccccc3)ncc2Cl)cc1`: the “hERG current change (%, negative = inhibition) at 10uM” value is listed as 37.2%.
Next, `Cn1c(O)c(C=Nc2ccc(Br)cc2)sc1=O`: 32.3%; `C1CNC(C23CC4CC(CC(C4)C2)C3)=N1`: 14.4%; `O=C(CCCN1C(=O)NC2(CCCC2)C1=O)Nc1ccc(F)cc1`: 3.91%.
Next, `Cc1cc(C(=O)N[C@H](c2ccccc2)[C@@]2(C)C[C@@H]2[C@@H](C)C(=O)Nc2ccc3ccccc3c2)n(C)n1`: -8.32%; `CC(C)c1cc(-c2cc(-c3ccc(Cl)cc3)on2)nc(NC2CCCC2)n1`: 13.3%.
With `CC1CN(c2nc3ccccc3cc2-c2ccccc2)CC(C)O1` (centres unmarked) the figure was -1.86%.
As to `COc1ccc(NC(=O)CN2CCC(NC(=O)C3CCCCC3)CC2)cc1`, the “hERG current change (%, negative = inhibition) at 10uM” value was -27.5%.
Next, `Cc1ccccc1NC(=O)c1nc2nccc(C)n2n1`: -2.88%; `CCC(Sc1nc2ccc(N)cc2s1)C(=O)Nc1nccs1` (centres unmarked): 7.08%; `COc1ccc(S(=O)(=O)n2ccc(C(C)Oc3ccc(-c4ccccc4)c(F)c3)n2)cc1` (centres unmarked): 17.4%.
With `Cc1ccc(NC(=O)c2ccc(CSc3ncnc4nc[nH]c34)cc2)c(C)c1` the figure was 7.48%.
With `CCC(=O)N1c2ccc(S(=O)(=O)NC3CCCCC3)cc2CC1C` (centres unmarked) the figure was -12.1%; with `CCOC(=O)C1=C(C)NC(C)=C(C(=O)OCC)C1C(=O)OCC(=O)N1CCc2ccccc2C1`, -3.85%.
For `COc1ccc(-c2nc3c(c(SCC(=O)N4CCOCC4)n2)COC(C)(C)C3)cc1`, the “hERG current change (%, negative = inhibition) at 10uM” value is listed as -7.61%.
With `Cc1ccc(-n2c(=O)c3c4c(sc3n(Cc3cc(=O)n5ccccc5n3)c2=O)CCC4)cc1C` the figure was -69.1%.
With `Cc1cc(NC(=O)c2ccno2)no1` the figure was 13.8%; with `NC(=O)/C(=N\OC(=O)c1ccco1)c1nc(-c2ccc(Br)cc2)cs1`, 7.28%.
With `O=C(CSc1ccccc1)Nc1ccc(S(=O)(=O)Nc2ncccn2)cc1` the figure was -20.9%.
In the case of `O=C1/C(=C/c2ccc(F)c(F)c2)CSc2sccc21`, the “hERG current change (%, negative = inhibition) at 10uM” value was found to be 8.63%.
Next, `Cc1ccc(S(=O)(=O)c2nc(S(=O)(=O)c3ccccc3)sc2N2CCN(C)CC2)cc1`: -42.3%; `Cc1cc2oc3c(c(=O)c2cc1C)C(c1cccc(Br)c1)N(Cc1ccco1)C3=O` (centres unmarked): 13.4%.
With `NS(=O)(=O)c1ccc(-n2nncc2C23CC4CC(CC(C4)C2)C3)cc1` the figure was -11.4%; with `O=C(Nc1ccc(F)c(Cl)c1)c1ccccc1`, 0.672%.
Next, `Cc1c(Cl)cccc1NC(=S)Nc1ccccn1`: -9.13%; `Nc1nonc1-n1nnc(C(=O)c2ccccc2)c1-c1ccccc1`: -0.617%.
On to `CN1CCSc2ccc(C(=O)NCc3ccccc3)cc21`, for which the “hERG current change (%, negative = inhibition) at 10uM” value is on record as -9.52%.
In the case of `Cc1ccc2cc(C=O)c(N3CCOCC3)nc2c1C`, the “hERG current change (%, negative = inhibition) at 10uM” value was found to be 13.3%.
With `O=C(NC1CCCCC1)N1CCC(n2c(=O)[nH]c3ccccc32)CC1` the figure was 2.34%.
Next, `CC(=O)Nc1ccc(Oc2ccc3c(c2)C(=O)NC3=O)cc1`: 24.8%; `CCc1ccc(CNc2ccc(N3CCN(C(C)=O)CC3)cc2)cc1`: -11.1%; `CCOc1cc(/C=N/NC(=O)OC)ccc1OCCSc1ccc(Cl)cc1`: 4.75%.
With `Cn1c(NC(=O)C2CCCC2)cc(=O)n(C)c1=O` the figure was 6.09%.
As for `Br.COCCn1c(-c2ccccc2)csc1=Nc1cccnc1`, the “hERG current change (%, negative = inhibition) at 10uM” value is listed as -68.3%.
As for `COc1ccc(N2CCN(C(=O)c3ccc(CNS(=O)(=O)c4cccc(OC)c4)cc3)CC2)cc1`, the “hERG current change (%, negative = inhibition) at 10uM” value is on record as -33.7%.
Turning to `CC(=O)c1c(C)[nH]c(C(=O)CSc2nnc(CN3CCCCCC3=O)n2-c2ccccn2)c1C`, the “hERG current change (%, negative = inhibition) at 10uM” value amounted to 6.65%.
In the case of `CC(C(=O)c1c[nH]c2ccccc12)N1CCc2ccccc2C1` (centres unmarked), the “hERG current change (%, negative = inhibition) at 10uM” value was determined as 5.34%.
With `COc1ccc([C@H]2[C@H](C(C)=O)N3N=Cc4ccccc4C3C23C(=O)OC(C)(C)OC3=O)cc1` (some centres unmarked) the figure was -19.1%; with `CCC1CCCCN1CCNC(=O)C1CCN(S(=O)(=O)c2cccc3nsnc23)CC1` (centres unmarked), -43.2%.
Next, `COc1ccc(C(CC(=O)O)NC(=O)c2ccco2)cc1` (centres unmarked): 2.5%.
Next, `CCOc1ccc(-n2c(=O)c3c4c(sc3n(CC(=O)NCC3CCCO3)c2=O)CCC4)cc1` (centres unmarked): 2.64%.
With `NC(=O)C1CCN(C(=O)CSc2nc3c(c(-c4ccccc4)n2)CCCC3)CC1`, the “hERG current change (%, negative = inhibition) at 10uM” value is given as -13.9%.
With `COCC(=O)NC1CCN(C(=O)Nc2ccc(Br)cc2)CC1` the figure was -12.7%; with `Cc1ccc(C(=O)NCC(c2ccco2)N2CCOCC2)cc1` (centres unmarked), 9.59%.
With `COc1ccc(Nc2nc(N(C)c3ccccc3)nc(N)c2[N+](=O)[O-])cc1` the figure was 4.76%.
With `O=C(NCCNc1nccc(C(F)(F)F)n1)c1cccs1` the figure was -11.3%; with `O=[N+]([O-])c1cccc(NC(=S)NCc2ccncc2)c1`, 0.695%.

For the origin of these results see PMC4336329 (PLoS ONE, 2015).
